This passage reports viability index results from the supplement of paper PMC4723716.

The structures appear in SMILES notation. Values joined by “and” are separate entries in the source; they are usually repeats but may differ in a detail not shown here. Identical values can stand only once. ± gives the uncertainty stated by the source. Whole data set: some 9,900 compounds, median “viability index relative to DMSO control” near 1, cut for the lowest 2% near 0.85. The list shows a part of the results.

The test relates to Plasmodium falciparum NF54 stage V gametocytes. The experiment in a line: viability index relative to DMSO control (fraction); higher = less gametocyte killing. To be noted: 2.5 µM, library set: Broad Institute DOS, incubation time: 72 h. The procedure, abridged:
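P. falciparum NF54 stage V gametocytes in serum-free screening medium (0.75% gametocytemia, 1.25% hematocrit, 10 µl) were incubated with compound at 2.5 µM in 1,536-well plates for 72 hr at 37°C under low oxygen. Then 3 µl of 2.5 µM MitoTracker Red CMXRos plus 0.13% saponin was added for one to two hours. One field per well was imaged, 20–70 µm2 red particles were counted, and the viability index was the count divided by the plate mean of DMSO wells.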

In turn, `COc1ccc(NC(=O)N(C)C[C@H]2OCc3cnnn3CCCC(=O)N([C@@H](C)CO)C[C@H]2C)c(OC)c1` had a viability index of 0.968 ± 0.03.

`N#C[C@H]1[C@@H](c2ccccc2-c2cccc(F)c2)[C@@H](CO)N1C(=O)c1cccnc1` came in with a viability index of 1.11 ± 0.1.

With `CNC[C@@H]1Oc2ncc(-c3cncnc3)cc2C(=O)N([C@@H](C)CO)C[C@H]1C`, the viability index came out at 1.09 ± 0.012.

For the molecule `COc1ccc2c3c([C@H](CO)NC[C@]33CN(C3)C(=O)c3cccc(F)c3)n(C)c2c1`, the viability index worked out at 1.03 ± 0.052.

Consider `CC(=O)N1[C@H](CO)[C@@H](c2ccccc2)[C@H]1CN(CC(C)C)C(=O)c1ccccn1`, for which the viability index is 1.058 ± 0.0036.

The molecule `COc1ccc(CN(C)C[C@@H]2OCCCC[C@H](C)Oc3ccc(NC(=O)C4CCCCC4)cc3C(=O)N([C@@H](C)CO)C[C@H]2C)cc1` returned a viability index of 1.07 ± 0.072.

As to `C[C@@H]1CN([C@H](C)CO)C(=O)CCCn2cc(nn2)CO[C@@H]1CN(C)C(=O)c1ccc(N2CCN(C)CC2)cc1`, the viability index turned out to be 0.987 ± 0.052.

The molecule `CO[C@H]1CN(C)C(=O)c2cc(NC(=O)c3nc4ccccc4s3)ccc2OC[C@@H](C)NC[C@@H]1C` came in with a viability index of 1.11 ± 0.074.

Molecule `Cn1cnc(CCNC(=O)C[C@@H]2CC[C@H]3[C@@H](COC[C@@H](O)CN3C(=O)Nc3ccc(C(F)(F)F)cc3)O2)c1` showed a viability index of 1.06 ± 0.051.

The molecule `O=C(N[C@H]1CC[C@@H](CC(=O)N2CCOCC2)O[C@@H]1CO)c1cccc(F)c1` displayed a viability index of 1.03 ± 0.074.

`CCC(=O)N(CC(C)C)C[C@@H]1[C@@H](c2ccccc2)[C@H](CO)N1C(=O)C1CCC1`: the viability index was determined as 0.982 ± 0.02.

`COc1cccc(C#Cc2ccc3c(c2)O[C@H](CN(C)C(=O)CN2CCOCC2)[C@H](C)CN([C@@H](C)CO)S3(=O)=O)c1` came in with a viability index of 1.03 ± 0.13.

For the molecule `CCS(=O)(=O)N1C[C@@]2(C1)CN(Cc1ccccc1F)[C@H](CO)c1[nH]c3cc(OC)ccc3c21`, the viability index turned out to be 0.9355 ± 0.0019.

In turn, `O=C1NC(Cc2cccc(Cl)c2)COCc2cnnn2CCC1c1ccccc1` (centres undefined) showed a viability index of 0.96562 ± 0.00019.

Regarding `N#C[C@@H]1[C@@H](c2ccc(-c3cccnc3)cc2)[C@H](CO)N1C(=O)C1CCOCC1`, the viability index came to 1.086 ± 0.0017.

With `COCC(=O)N1C[C@@]2(C1)CN(Cc1ccc3OCOc3c1)[C@H](CO)c1c2c2ccc(OC)cc2n1C`, the viability index worked out at 0.938 ± 0.068.

The molecule `COc1ccc(CN(C)C[C@H]2OCCCC[C@@H](C)Oc3ccc(NC(=O)C4CCCCC4)cc3C(=O)N([C@H](C)CO)C[C@@H]2C)cc1` registered a viability index of 1.07 ± 0.029.

`C[C@@H](NC(=O)C[C@H]1CC[C@H]2[C@H](COc3ccc(NC(=O)C4CCOCC4)cc3C(=O)N2C)O1)c1ccccc1` returned a viability index of 1.061 ± 0.0016.

`COc1ccc2c3c([nH]c2c1)[C@H](CO)N(C[C@]31CN(C1)C(=O)CN1CCOCC1)C(C)=O` gave a viability index of 0.987 ± 0.065.

The molecule `CN1C(=O)c2cc(NC(=O)c3cccc(F)c3)ccc2OC[C@@H]2O[C@@H](CC(=O)NCC3CCCCC3)CC[C@@H]21` displayed a viability index of 1.03 ± 0.1.

In turn, `CCNC(=O)[C@H]1[C@H](CO)[C@H]2Cn3c(ccc(-c4cccc(F)c4)c3=O)[C@H]2N1C(=O)Cc1cccnc1` came in with a viability index of 1.04 ± 0.065.

With `O=C(Nc1ccc(C(F)(F)F)cc1)Nc1ccc2c(c1)[C@H]1C[C@H](CC(=O)N3CCc4ccccc4C3)O[C@@H](CO)[C@H]1O2`, the viability index is 1.081 ± 0.0074.

Molecule `Cc1noc(C)c1S(=O)(=O)N(C)C[C@@H]1OCCCC[C@H](C)Oc2ccc(N(C)C)cc2C(=O)N([C@H](C)CO)C[C@H]1C` had a viability index of 0.998 ± 0.043.

`CC(C)N(C[C@H]1[C@@H](c2ccccc2)[C@H](CO)N1S(C)(=O)=O)C(=O)CN(C)C` came in with a viability index of 1.01 ± 0.073.

The molecule `COc1cccc(C(=O)Nc2ccc3c(c2)C(=O)N(C)[C@@H]2CC[C@@H](CC(=O)NCc4ccc(F)cc4)O[C@@H]2CO3)c1` registered a viability index of 1.17 ± 0.09.

As to `O=C(C[C@H]1CC[C@H]2[C@@H](COC[C@H](O)CN2Cc2cc(F)ccc2F)O1)NCc1ccc(Oc2ccccc2)cc1`, the viability index is 1.06 ± 0.045.

Molecule `COc1ccc2c3c([nH]c2c1)[C@H](CO)N(Cc1nccs1)C[C@]31CN(Cc2ccncc2)C1` came in with a viability index of 0.986 ± 0.099.

Take `CN1C(=O)c2cc(NC(=O)c3cccc(F)c3)ccc2OC[C@@H]2O[C@H](CC(=O)NCC3CCCCC3)CC[C@@H]21`: the viability index is 1.09 and 1.11.

`C[C@H](CO)N1C[C@H](C)[C@@H](CN(C)Cc2ccccc2)Oc2ccc(NC(=O)Nc3ccccc3)cc2C1=O` had a viability index of 1.045 ± 0.0045.

`C[C@H]1CN([C@@H](C)CO)S(=O)(=O)c2ccc(-c3cncnc3)cc2O[C@@H]1CN(C)C(=O)NC1CCCC1`: the viability index is 0.931 ± 0.06.

As to `Cc1noc(C)c1S(=O)(=O)Nc1ccc2c(c1)C(=O)N([C@H](C)CO)C[C@@H](C)[C@@H](CN(C)Cc1ccc(C(=O)O)cc1)OCCCC[C@@H](C)O2`, the viability index is 1.14 ± 0.055.

In turn, `CN1CCN(C(=O)[C@H]2[C@H](CO)[C@H]3Cn4c(cccc4=O)[C@H]3N2Cc2cc(F)ccc2F)CC1` showed a viability index of 1.1 ± 0.021.

`C[C@H]1CN([C@@H](C)CO)C(=O)CCCn2cc(nn2)CO[C@H]1CN(C)S(=O)(=O)c1ccc(-n2cccn2)cc1` showed a viability index of 1.066 ± 0.0082.

Consider `C[C@H](CO)N1C[C@H](C)[C@H](CN(C)S(=O)(=O)c2cn(C)cn2)OCCCC[C@H](C)Oc2ccc(NC(=O)Nc3cccc4ccccc34)cc2C1=O`, for which the viability index is 1.08 ± 0.11.
